Data on one molecule can be found in patent publication US9457029B2, “Treatment of genotyped diabetic patients with DPP-IV inhibitors such as linagliptin” (Boehringer Ingelheim International GmbH, priority 2009, dated 2016).

This data set deals with Japanese patients with type 2 diabetes mellitus. In words: 12-week placebo-controlled study of linagliptin monotherapy in Japanese patients. Particulars: for FPG, difference of adjusted mean change from baseline vs. PBO: after 12 weeks. Type of data set: in vivo, human. Here is the method: Of those; 9.4%, 8.8% and 10.0%, respectively, are assessed as being drug-related. […] Body weight is unchanged with both LI 5 mg and 10 mg, −0.39 and −0.06 kg, respectively, which is not sigificantly different vs. PBO (−0.04 kg).

For the molecule `CC#CCn1c(N2CCC[C@@H](N)C2)nc2c1c(=O)n(Cc1nc(C)c3ccccc3n1)c(=O)n2C` [linagliptin, 1-[(4-methyl-quinazolin-2-yl)methyl]-3-methyl-7-(2-butyn-1-yl)-8-(3-(R)-amino-piperidin-1-yl)-xanthine], the “insulin secretion as indicated by changes in the proinsulin/insulin ratio” value (LI 5 mg and 10 mg, 12 weeks) is “significantly improves insulin secretion”. The “FPG, difference of adjusted mean change from baseline vs. PBO” value (LI 5 mg) is -19.7 mg/dL. Also, the “difference of adjusted mean change from baseline in HbA1c vs. PBO” value (LI 10 mg qd, week 12) is listed as −0.88%. In addition, under “LI 10 mg, 12 weeks”, the body weight change is -0.06 kg and the “proportion of patients whose HbA1c levels lower by at least 0.5%” value amounted to 59.9%. Also, under “LI 10 mg”, the “FPG, difference of adjusted mean change from baseline vs. PBO” value is -20.4 mg/dL.
